Values marked as one replicate rest on one cluster of the flow cell; about a third of the high ones do not repeat.
tested on: ATP; test: switch fluorescence ratio, 500 uM ATP over buffer (Cy3 cluster intensity, sum of 5 cycles each) (fold (ratio)); higher = stronger signal-on switching upon ATP binding; sequences stand for … in TCGTCGGCAGCGTCAGATGTGTATAAGAGACAGTTTTTTTTTTTTTTTTTTTTTTTTT…TC; details: aptamer strand: ATP DNA aptamer (quencher-CACCTGGGGGAGTATTGCGGAGGAAGG + anchor), 100 nM annealed; ATP concentration: 500 uM; one replicate
Summary of the method: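 Clusters carrying Cy3-labelled switching strands on a modified Illumina MiSeq flow-cell were annealed to 100 nM quencher-labelled ATP aptamer and imaged in selection buffer. They were imaged again after 15 min with 500 uM ATP at 22 °C, over five buffer/ATP cycles with NaOH stripping and re-annealing in between. For each cluster, the fluorescence ratio is the summed Cy3 intensity of the target cycles divided by that of the buffer cycles, averaged per switch-domain sequence. Clusters outside 100-1000 RFU were left out.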
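Further: ATP exposure 15 min at 22 °C before imaging.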

| Sequence | switch fluorescence ratio |
| --- | --- |
| GACGACAGAC | 2.31 |
| GACGATATGA | 1.1 |
| GACGATGATA | 1.07 |
| GACGCGTCGG | 0.955 |
| GACGGACTCC | 1.5 |
| GACGGCCGTG | 0.985 |
| GACGGCGCAA | 4.19 |
| GACGGCGTAT | 1.03 |
| GACGGCTGAG | 0.982 |
| GACGGGGTGA | 1.01 |
| GACGGGTCCT | 1.01 |
| GACGTAGGTA | 1.04 |
| GACGTTGGTC | 0.984 |
| GACTACATGT | 1.01 |
| GACTAGATCA | 1.01 |
| GACTAGCAGG | 1.03 |
| GACTAGCGGA | 1.04 |
| GACTCGCTGC | 1.79 |
| GACTCTGCTA | 6.12 |
| GACTGCGACA | 1.09 |
| GACTGCGGAC | 2.05 |
| GACTTACTAT | 1.1 |

| Sequence | switch fluorescence ratio |
| --- | --- |
| GACTTAGT | 0.96 |
| GACTTATAAC | 1.02 |
| GACTTCGATT | 1.03 |
| GACTTGACAG | 1 |
| GACTTGACCA | 1.03 |
| GACTTGCCCG | 1.06 |
| GACTTGTTAC | 1.07 |
| GACTTTGTAA | 0.982 |
| GACTTTTTAA | 1.03 |
| GACTTTTTAC | 1.08 |
| GAGAAAAAAA | 0.98 |
| GAGAAACGGG | 0.991 |
| GAGAAACGTG | 1.01 |
| GAGAAATAAG | 1 |
| GAGAAATTTG | 1.02 |
| GAGAACAGTA | 0.997 |
| GAGAACCAGG | 1.18 |
| GAGAACGAAA | 1.07 |
| GAGAACTTAA | 1.08 |
| GAGAAGGAGC | 1.02 |
| GAGAATGCGG | 1.06 |
| GAGAGATGCG | 1.11 |

| Sequence | switch fluorescence ratio |
| --- | --- |
| GAGAGATGGT | 0.971 |
| GAGAGCATTG | 1.01 |
| GAGAGCTCTT | 1.03 |
| GAGAGGCCGG | 0.992 |
| GAGAGGGACA | 0.988 |
| GAGAGGTAGC | 1.14 |
| GAGAGTAGAA | 0.968 |
| GAGAGTGCTA | 1 |
| GAGATAATAG | 1.01 |
| GAGATACCCC | 1.08 |
| GAGATAGAGT | 1.03 |
| GAGATCACAT | 0.971 |
| GAGATCGCTA | 0.977 |
| GAGATCTCCA | 0.985 |
| GAGATGAGA | 1 |
| GAGATGCGC | 0.996 |
| GAGATGTAGC | 0.944 |
| GAGATTTCGA | 0.989 |
| GAGCAAACTT | 1.49 |
| GAGCAAGCAT | 1.1 |
| GAGCACCGAC | 1.08 |
| GAGCACCGCT | 1.01 |

| Sequence | switch fluorescence ratio |
| --- | --- |
| GAGCAGCTAC | 1.42 |
| GAGCAGCTTT | 0.99 |
| GAGCAGGCG | 0.876 |
| GAGCAGTACA | 1.74 |
| GAGCATCA | 0.997 |
| GAGCATGTTG | 1.02 |
| GAGCCAAGG | 1.02 |
| GAGCCAGAAG | 1.01 |
| GAGCCAGACA | 0.981 |
| GAGCCGGAAA | 0.999 |
| GAGCGCTGTA | 1.01 |
| GAGCGCTTGA | 0.997 |
| GAGCGGCACT | 1.08 |
| GAGCGGTGTA | 1 |
| GAGCGGTGTC | 0.978 |
| GAGCGTGGGC | 0.969 |
| GAGCTACTTT | 0.975 |
| GAGCTATCGT | 1.03 |
| GAGCTCTGTG | 1.01 |

— the supplement of paper PMC10126150
